# Laboratory results reported in PubChem BioAssay (Tox21).
# Several values for one entry are separate records, joined by “and”; a condition that tells them apart may be missing. Equal values may be shown once. Inconclusive results, whose numbers are uncertain, are shown with a selection of clear calls. For some assays here: Potencies of inconclusive entries are doubtful fits and often do not repeat. Activity calls are given as the source filed them. Unless noted, calls follow the shape of the dose curve; as a rule, active = well fitted curve in the direction sought with a large enough effect in the repeat runs; inconclusive = weak or mixed curves; inactive = no such curve, though single readings can be large; an effect the other way counts as inactive or inconclusive.
# Legend:
# [1] = qHTS assay to identify small molecule agonists of the retinoic acid receptor (RAR) signaling pathway (AID 1159553); details: C3RL4 RARE luciferase reporter, agonist, 6 h; activation: at 73.3 µM (top of the series) unless noted; also: potency is read from the fitted curve at half-maximal effect; as to activation: % is scaled to controls: 0 for no effect and ±100 for the full control effect
# Method in brief: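 Activation of retinol signaling was monitored via a RARE luciferase reporter in C3RL4 cells. After 6 hr compound treatment at 37 C, detection reagent was added for 30 min at room temperature before luminescence reading.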
# [2] = qHTS assay to identify small molecule antagonists of the constitutive androstane receptor (CAR) signaling pathway - cell viability counter screen (AID 1224837); also: nearly all actives have a fitted effect of over 45% in size; also: potency is read from the fitted curve at half-maximal effect
# Method in brief: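 Using CellTiter-Fluor, viability is scored in HepG2 cells stably carrying hCAR and a 2.2kb CYP2B6 reporter after 23 hr compound exposure across 15 concentrations, with CITCO present at 50 nM.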
# [3] = qHTS assay to identify small molecule antagonists of the estrogen related receptor (ERR) signaling pathway from Tox21 library - cell viability counter screen (AID 1224834); also: nearly all actives have a fitted effect of over 30% in size; also: potency is read from the fitted curve at half-maximal effect
# Method in brief: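 CellTiter-Fluor fluorescence measured; ERR cells; 17.5 h compound incubation at 37 C; 30 min reagent step.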
# [4] = biological target: Retinoic acid receptor RXR-alpha (Homo sapiens) (UniProt P19793); experiment: qHTS assay to identify small molecule agonists of the RXR signaling pathway (AID 1159527; calls by dose curve; also: nearly all actives have a fitted effect of over 35% in size; also: potency is read from the fitted curve at half-maximal effect; as to activation: % is scaled to controls: 0 for no effect and ±100 for the full control effect); details: HEK293T RXRa-UAS-bla, beta-lactamase ratio, 16 h; activation: at 76.8 µM (top of the series) unless noted
# Chain of UniProt P19793 (P19793 whole entry, looked up): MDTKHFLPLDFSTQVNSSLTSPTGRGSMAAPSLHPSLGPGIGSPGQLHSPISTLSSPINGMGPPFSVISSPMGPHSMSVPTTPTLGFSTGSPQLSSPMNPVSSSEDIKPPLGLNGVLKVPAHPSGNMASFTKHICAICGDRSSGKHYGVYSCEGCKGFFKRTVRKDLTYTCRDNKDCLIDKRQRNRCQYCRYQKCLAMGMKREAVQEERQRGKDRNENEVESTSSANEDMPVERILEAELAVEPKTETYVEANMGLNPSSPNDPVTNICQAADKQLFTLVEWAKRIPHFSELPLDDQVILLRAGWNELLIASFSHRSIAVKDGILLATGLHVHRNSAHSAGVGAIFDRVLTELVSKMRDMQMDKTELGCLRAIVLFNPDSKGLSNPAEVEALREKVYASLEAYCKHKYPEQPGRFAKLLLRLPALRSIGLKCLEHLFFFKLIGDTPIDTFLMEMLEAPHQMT
# Method in brief: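 16 hr incubation of compound-treated RXR-alpha-UAS-bla HEK 293T cells (2% charcoal-stripped FBS, 37 C) preceded a 2 hr room-temperature LiveBLAzer FRET substrate step and blue/green fluorescence measurement.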
# [5] = qHTS assay to identify small molecule antagonists of the retinoic acid receptor (RAR) signaling pathway (AID 1159552; also: nearly all actives have a fitted effect of over 50% in size; also: potency is read from the fitted curve at half-maximal effect)
# Method in brief: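 C3RL4 RARE-luc cells, overnight plating; retinol 1 uM final added right after compound; 6 hr 37 C; luciferase read at 30 min RT.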
# [6] = qHTS assay to identify small molecule agonists of the RXR signaling pathway - cell viability counter screen (AID 1159529); also: nearly all actives have a fitted effect of over 50% in size; also: potency is read from the fitted curve at half-maximal effect
# Method in brief: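 In this parallel viability measure, GeneBLAzer RXR-alpha HEK 293T cells (2% charcoal-stripped FBS) were given a 5 hr preincubation, treated with compounds 16 hr at 37 C, and read by CellTiter-Glo luminescence.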
# [7] = qHTS assay to identify small molecule antagonists of the retinoid acid receptor (RAR) signaling pathway - cell viability counter screen (AID 1159551); also: % is scaled to controls: 0 for no effect and ±100 for the full control effect; nearly all actives have a fitted effect of over 35% in size
# Method in brief: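 Seed C3RL4 cells; next day add compound, then retinol to 1 uM final; incubate 6 h at 37 C; add CellTiter-Glo; read luminescence after 30 min at RT.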
# [8] = biological target: Luciferin 4-monooxygenase (Photinus pyralis) (UniProt P08659); experiment: qHTS assay to identify small molecule inhibitors of firefly luciferase (AID 1224835); also: nearly all actives have a fitted effect of over 25% in size; also: potency is read from the fitted curve at half-maximal effect
# Chain of UniProt P08659 (P08659 whole entry, looked up): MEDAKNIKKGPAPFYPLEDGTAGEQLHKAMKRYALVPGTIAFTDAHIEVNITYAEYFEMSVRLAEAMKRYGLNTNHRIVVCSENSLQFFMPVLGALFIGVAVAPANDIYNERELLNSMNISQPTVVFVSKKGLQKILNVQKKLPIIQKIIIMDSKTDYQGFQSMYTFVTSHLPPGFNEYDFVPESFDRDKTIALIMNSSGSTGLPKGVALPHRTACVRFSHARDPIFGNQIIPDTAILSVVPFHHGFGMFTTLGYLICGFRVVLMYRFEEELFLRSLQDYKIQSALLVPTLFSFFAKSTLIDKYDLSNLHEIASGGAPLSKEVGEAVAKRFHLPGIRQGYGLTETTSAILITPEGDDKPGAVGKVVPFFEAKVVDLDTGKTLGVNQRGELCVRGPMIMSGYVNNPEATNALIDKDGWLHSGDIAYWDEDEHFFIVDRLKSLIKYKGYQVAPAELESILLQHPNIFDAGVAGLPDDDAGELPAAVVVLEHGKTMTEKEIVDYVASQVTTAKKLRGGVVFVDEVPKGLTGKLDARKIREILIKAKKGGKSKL
# Method in brief: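 Biochemical qHTS: compounds run as interplate titrations against purified firefly enzyme, with D-luciferin and ATP each at its KM concentration. Light output recorded by CCD imaging.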
# [9] = qHTS assay to identify small molecule agonists of the constitutive androstane receptor (CAR) signaling pathway - cell viability counter screen (AID 1224836); also: % is scaled to controls: 0 for no effect and ±100 for the full control effect; nearly all actives have a fitted effect of over 45% in size
# Method in brief: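 Using CellTiter-Fluor, viability of HepG2 cells harbouring hCAR and CYP2B6-2.2kb was measured following 23 h incubation with a 15-concentration compound series plus PK11195 (0.75 uM final).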
# [10] = qHTS assay to identify small molecule antagonists of the estrogen related receptor (ERR) signaling pathway (AID 1224819; also: potency is read from the fitted curve at half-maximal effect; nearly all actives have a fitted effect of over 50% in size)
# Method in brief: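 qHTS in ERR cells, 2,000/well, 1536 format. Cpd (DMSO) added after 6 h settle, 18 h 37 C. One-Glo luminescence, 30 min RT.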
# [11] = qHTS assay to identify small molecule antagonists of the estrogen related receptor signaling pathway with the pleiotropic PPARgamma coactivator (PGC) cell viability counter screen (AID 1224822;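 also: viability read after 17.5 h compound exposure; % is scaled to controls: 0 for no effect and ±100 for the full control effect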)
# Method in brief: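 Compounds in DMSO, with positive and negative controls, were applied to PGC/ERR cells (2,000/well) and left 17.5 h at 37 C before CellTiter-Fluor detection.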
# Tags tell the direction and shape of the fitted curve or compound fluorescence and quenching.
smiles,measurement,setting,value
NNC(=O)c1ccccc1,Potency,[1],active: 1.77 µM
same,Potency,[2],"inconclusive: 70.5 µM [cytotoxic, single point]"
ClC=C(Cl)Cl,Potency,[2],inactive
CC(C)COP(=O)(OCC(C)C)OCC(C)C,Potency,[3],inactive
CC1(C)CON(Cc2ccccc2Cl)C1=O,activation,[4],inconclusive: -37.2%
same,Potency,[1],active: 68.6 µM
C[C@H](CN1CCOCC1)C(C(=O)N1CCCC1)(c1ccccc1)c1ccccc1,Potency,[2],inconclusive: 74.4 µM [cytotoxic]
CCCCCCC1CCOC1=O (stereo not given),Potency,[5],inactive
COP(=O)(O)OC,Potency,[6],inactive
CC(Cc1ccc(C(C)(C)C)cc1)CN1C[C@@H](C)O[C@@H](C)C1 (stereo not given in full),Potency,[7],inactive
CCc1cc(OC)c(C[C@H](C)N)cc1OC,Potency,[6],inactive
same,Potency,[7],inactive
Oc1ccc(Cc2ccc(O)cc2)cc1,Potency,[1],"inconclusive: 38.9 µM [activator, partial curve]"
same,Potency,[8],active: 40.2 µM
O=C(Cc1ccccc1)OCCc1ccccc1,Potency,[4],inactive
same,Potency,[1],"inconclusive: 61.1 µM [activator, partial curve, poor fit]"
CCOC(=O)C1(c2ccccc2)CCN(CCc2ccc(N)cc2)CC1,Potency,[6],"inconclusive: 10.7 µM [cytotoxic, partial curve, poor fit]"
Cc1ccc2cc3c(ccc4ccccc43)c3c2c1CC3,Potency,[1],"inconclusive: 4.34 µM [activator, full curve]"
same,Potency,[8],active: 11.3 µM
same,Potency,[2],"inconclusive: 2.74 µM [cytotoxic, single point]"
CCCCCCCCCCCCCCCl,Potency,[3],inactive
CCOP(=S)(OCC)SC(CCl)N1C(=O)c2ccccc2C1=O (stereo not given),activation,[4],inconclusive: -23.7%
same,Potency,[5],"inconclusive: 61.1 µM [inhibitor, partial curve]"
same,Potency,[2],inactive
CC(C)(c1ccccc1)c1cc(-n2nc3ccccc3n2)c(O)c(C(C)(C)c2ccccc2)c1,Potency,[3],inactive
CCCCCCCCOC(=O)c1ccccc1C(=O)OCCCCCCCC,Potency,[1],inactive
O=C(N[C@H]1CN2CCC1CC2)c1cc2ccoc2cn1,Potency,[4],"inconclusive: 17.4 µM [activator, full curve, poor fit]"
same,Potency,[1],inactive
BrCC(Br)(Br)Br,activation,[1],inconclusive: -0.642% [phenotype inactive] [at 94.8 µM]
same,Potency,[8],"inconclusive: 73.6 µM [inhibitor, partial curve]"
COP(=O)(OC)OC=C(Cl)Cl,Potency,[6],inactive
Cc1cc(C)c(C(=O)P(=O)(C(=O)c2c(C)cc(C)cc2C)c2ccccc2)c(C)c1,Potency,[9],inactive
CSc1nnc(C(C)(C)C)c(=O)n1N,activation,[4],inconclusive: 17.2%
same,Potency,[1],inactive
Cn1c(CCCC(=O)O)nc2cc(N(CCCl)CCCl)ccc21,Potency,[10],"inconclusive: 33.5 µM [inhibitor, partial curve, poor fit]"
same,Potency,[11],inactive
CN1CCC(O)(c2ccc(F)cc2)C(C(=O)c2ccc(F)cc2)C1 (stereo not given),activation,[4],inconclusive: -23.6% [at 35.3 µM]
same,Potency,[3],inactive
O=C(Cl)OCc1ccccc1,Potency,[5],inactive
CC(C)=CCOc1c2occc2cc2ccc(=O)oc12,Potency,[10],"inconclusive: 16.8 µM [inhibitor, partial curve]"
Cc1cc(C)c(C2=C(OC(=O)CC(C)(C)C)C3(CCCC3)OC2=O)c(C)c1,Potency,[4],inactive
same,Potency,[8],"inconclusive: 66.3 µM [inhibitor, partial curve]"
same,Potency,[2],inactive
CC(C)(C#N)C(C)(C)C#N,Potency,[9],inactive
Clc1nc(Cl)nc(Cl)n1,Potency,[6],inactive
same,Potency,[8],"inconclusive: 98.5 µM [inhibitor, single point] and inconclusive: 31.7 µM [inhibitor, full curve]"
Oc1cc(Cl)cc(Cl)c1,Potency,[4],inactive
same,Potency,[3],inactive
Brc1ccc(Oc2ccc(Br)cc2Br)c(Br)c1,Potency,[6],"inconclusive: 34.7 µM [cytotoxic, partial curve]"
same,Potency,[1],active: 13.7 µM
same,Potency,[9],inactive
Oc1cccc(Cl)c1,Potency,[4],inactive
same,Potency,[2],inactive
O=C(NC(=O)c1c(F)cccc1F)Nc1cc(Cl)c(OC(F)(F)C(F)F)c(Cl)c1,activation,[4],inconclusive: 26.8%
same,Potency,[1],"inconclusive: 1.54 µM [activator, full curve, poor fit]"
C=CC(N)=O,Potency,[4],"inconclusive: 27.6 µM [activator, partial curve, poor fit] and inactive"
same,Potency,[8],inactive
NC(=S)c1c(Cl)cccc1Cl,Potency,[5],inactive
same,Potency,[3],inactive
COP(=S)(OC)Oc1ccc([N+](=O)[O-])cc1,activation,[4],inconclusive: 21.6%
same,Potency,[3],"inconclusive: 38.6 µM [cytotoxic, partial curve] and inconclusive: 68.6 µM [cytotoxic, single point]"
same,Potency,[8],"inconclusive: 25.2 µM [inhibitor, full curve, poor fit] and inconclusive: 56.4 µM [inhibitor, partial curve, poor fit]"
CCOC(=O)c1cn2nc(OP(=S)(OCC)OCC)cc2nc1C,Potency,[4],inconclusive: 24.5 µM [partial curve]
same,Potency,[1],"inconclusive: 77 µM [activator, partial curve, poor fit]"
same,Potency,[3],"inconclusive: 68.6 µM [cytotoxic, single point]"
